Test results from the supplement of paper PMC9174493.
The list shows a part of the results. Single values of this set are uncertain. Values with irradiation are relative to irradiated vehicle.

Test system: A549-Dual
Assay: NF-kB reporter (SEAP) activity, viability-corrected, relative to vehicle (fold change vs vehicle); higher = more activation of STING-IRF / NF-kB immune response reporter
Conditions: 1 µM; irradiation: 8 Gy/4 fr
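Note: viability correction based on the alamar blue assay, with concentrations leaving 10% survival or less dropped.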

Structure (SMILES)	NF-kB reporter
CC1=C(CC(=O)O)c2cc(F)ccc2/C1=C\c1ccc(S(C)=O)cc1 (stereo not given) [Sulindac]	0.796
C1N2CN3CN1CN(C2)C3 [Methenamine]	1.33
COc1ccc2cc(C(C)C(=O)[O-])ccc2c1.[Na+] (stereo not given) [Naproxen Sodium]	1.28
Cc1ccc(Cl)c(Nc2ccccc2C(=O)[O][Na])c1Cl [Meclofenamate Sodium]	1.23
O=C(OCCOCCO)c1ccccc1Nc1cccc(C(F)(F)F)c1 [Etofenamate]	1.16
O=C([O-])c1cc(N=Nc2ccc(O)c(C(=O)[O-])c2)ccc1O.[Na+].[Na+] [Olsalazine Sodium]	1.1
CC(=O)Nc1ccc(OC(=O)c2ccccc2OC(C)=O)cc1 [Benorylate]	1.05
CO/N=C(\C(=O)NC1C(=O)N2C(C(=O)OCOC(=O)C(C)(C)C)=C(C)CSC12)c1csc(N)n1.Cl (stereo not given) [Cefetamet pivoxil hydrochloride]	1.13
CCC(C(=O)O)c1ccc(N2Cc3ccccc3C2=O)cc1 (stereo not given) [Indobufen]	1.19
CS(=O)(=O)O.Cc1ccc(NC(=O)c2ccc(CN3CCN(C)CC3)cc2)cc1Nc1nccc(-c2cccnc2)n1 [Imatinib Mesylate (STI571)]	0.832
CC(C(=O)O)c1ccc(C(=O)c2ccccc2)s1 (stereo not given) [Tiaprofenic acid]	1.82
CCc1nc(N)nc(N)c1-c1ccc(Cl)cc1 [Pyrimethamine]	1.35
COc1cc(C2c3cc4c(cc3C(OC3OC5COC(C)OC5C(O)C3O)C3COC(=O)C23)OCO4)cc(OC)c1O (stereo not given) [Etoposide]	1.02
CN(C)CCC(c1ccc(Br)cc1)c1ccccn1.O=C(O)/C=C\C(=O)O (stereo not given) [Brompheniramine hydrogen maleate]	1.35
CC12CCC3c4ccc(O)cc4CC(CCCCCCCCCS(=O)CCCC(F)(F)C(F)(F)F)C3C1CCC2O (stereo not given) [Fulvestrant]	0.824
O=C([O-])CC(O)(CC(=O)[O-])C(=O)[O-].O=C([O-])CC(O)(CC(=O)[O-])C(=O)[O-].[BiH6+3].[K+].[K+].[K+] [Gastrodenol]	1.27
CCCCC1(COC(=O)CCC(=O)O)C(=O)N(c2ccccc2)N(c2ccccc2)C1=O [Suxibuzone]	1.67
O=C(O)Cc1ccccc1Nc1c(Cl)cccc1Cl.OCCN1CCCC1 [Diclofenac Epolamine]	0.948
Cl.N=C1CCCN1Cc1[nH]c(=O)[nH]c(=O)c1Cl.O=c1[nH]c(=O)n(C2CC(O)C(CO)O2)cc1C(F)(F)F.O=c1[nH]c(=O)n(C2CC(O)C(CO)O2)cc1C(F)(F)F (stereo not given)	0.822
NC(CO)(CO)CO [Trometamol]	1.13

Structure (SMILES)	NF-kB reporter
COc1ccc2c(c1)c(CC(=O)O)c(C)n2C(=O)c1ccc(Cl)cc1 [Indomethacin]	1.45
Cn1cnc([N+](=O)[O-])c1Sc1ncnc2nc[nH]c12 [Azathioprine]	1.32
NCCNc1ccc(NCCN)c2c1C(=O)c1ccncc1C2=O.O=C(O)/C=C\C(=O)O.O=C(O)/C=C\C(=O)O [Pixantrone Maleate]	0.91
CC(=O)Oc1cccc2c1C(=O)c1c(OC(C)=O)cc(C(=O)O)cc1C2=O [Diacerein]	1.27
CNCC(O)c1ccc(O)c(O)c1.O=C(O)C(O)C(O)C(=O)O (stereo not given) [Epinephrine bitartrate]	1.02
CC1(C(=O)O)CCC2(C)CCC3(C)C(=CC(=O)C4C5(C)CCC(OC6OC(C(=O)O)C(O)C(O)C6OC6OC(C(=O)O)C(O)C(O)C6O)C(C)(C)C5CCC43C)C2C1.N.N (stereo not given) [Diammonium Glycyrrhizinate]	1.35
CCCCCCCCCCCCCCCCCCOP(=O)([O-])OC1CC[N+](C)(C)CC1 [Perifosine (KRX-0401)]	0.91
COc1c2occc2cc2ccc(=O)oc12 [Methoxsalen]	1.34
O=C(O)CCCN1CCC(OC(c2ccc(Cl)cc2)c2ccccn2)CC1 (stereo not given) [Bepotastine]	1.25
CN(C)CCCOc1nn(Cc2ccccc2)c2ccccc12.Cl [Benzydamine HCl]	1.29
CC(C(=O)O)c1ccc2c(c1)[nH]c1ccc(Cl)cc12 (stereo not given) [Carprofen]	1.19
COc1cc2nccc(Oc3ccc(NC(=O)Nc4cc(C)on4)c(Cl)c3)c2cc1OC [Tivozanib (AV-951)]	0.635
Oc1ccc(/C=C/c2cc(O)cc(O)c2)cc1 [Resveratrol]	1.46
Nc1cccc2c1C(=O)N(C1CCC(=O)NC1=O)C2=O (stereo not given) [Pomalidomide]	0.817
COc1cc(C2c3cc4c(cc3C(OC3OC5COC(c6cccs6)OC5C(O)C3O)C3COC(=O)C23)OCO4)cc(OC)c1O (stereo not given) [Teniposide]	0.684
S=c1nc[nH]c2nc[nH]c12 [Mercaptopurine (6-MP)]	0.774
CC(C(=O)O)c1ccc2c(c1)CC(=O)c1ccccc1S2 (stereo not given) [Zaltoprofen]	1.18
Cc1nc(Nc2ncc(C(=O)Nc3c(C)cccc3Cl)s2)cc(N2CCN(CCO)CC2)n1.Cl [Dasatinib hydrochloride]	0.649
O=c1[nH]cc(F)c(=O)[nH]1 [Fluorouracil (5-Fluoracil, 5-FU)]	1.1
COc1cc(/C=C/C(=O)/C=C(O)/C=C/c2ccc(O)c(OC)c2)ccc1O [Curcumin]	0.812
